“And” between values parts separate entries of the source, which are not always exact repeats. Equal values may be shown once. Square brackets hold non-standard residues; d marks the D form. Ends that are not written are not given here. Peptide text beside a SMILES is read from it. * marks the point of attachment. Acetyl(1-adamantyl) = O=C(CC12CC3CC(CC(C3)C1)C2)*; Hyp = O=C(O)[C@@H]1C[C@@H](O)CN1; 2Thi = N[C@@H](Cc1cccs1)C(=O)O
What was measured:
[1] = tested on: cerebral infarction in mouse MCAO model; assay: Mouse middle cerebral artery occlusion (MCAO) model, Example 1: 1-hr occlusion, TTC infarction volume and motor behavior at 24 hrs; type: in vivo, C57 mouse; conditions: for % infarction in ipsilateral hemisphere, group mean: IV-injection, 250 μg/mouse of FPA-h or its molar equivalent
[2] = tested on: cerebral infarction in mouse MCAO model; assay: Mouse MCAO model, FPA and C-terminal fragments of FPAw (Example 2), infarct volume by TTC; type: in vivo, C57BL/6 mouse; conditions: for Percent reduction in Infarct volume: 10 mg/kg i.v. at end of 1 h ischemia, 24 h reperfusion
[3] = tested on: cerebral infarction in mouse MCAO model; conditions: for infarct area vs saline treated animals, statistical significance: 1-tailed t-test, p value less than 0.05; for ischemia injury %, Mean / total damage area, Mean: group mean; for % Ischemic Injury: mean of group, mouse MCAO; for total damage area, Total: sum over animals; for animal died: individual animal in MCAO experiment
Source text: Table 22. Compared with the vehicle-injected group, the infarct area in the brains of the BK variants is show in Table 22. The BK variants shown in Table 22 are presented in their order of activity. SEQ ID NOs: 58, 61, and 77 were significant to less than a 0.05 p value. The p-values were derived by grouping all saline treated animals shown in Table 28 and comparing to experimental animals shown in Table 23 using a 1-tailed t-test. Any p-value found to be less than 0.05 was deemed to be statistically significant.
A number of the Bradykinin variants were tested in the MCAO mouse model as disclosed in the examples herein.
The numbers designating the columns refer to the animals used in a particular experiment for the designated variant. For example, in certain experiments there were 9 parallel animals undergoing occlusion and subsequent FPA variant injection. The infarct area in each section was determined with a computer-assisted image analysis system, consisting of a Power Macintosh computer equipped with a Quick Capture frame grabber card, Hitachi CCD camera mounted on a camera stand. NIH Image Analysis Software, v. 1.55 was used. The images were captured and the total area of infarct was determined over the sections. A single operator blinded to treatment status performed all measurements. Summing the infarct volumes of the sections calculated the total infarct volume. The results are expressed as the mean±standard deviation (SD).

GEFLAEGGGVR [C-terminal fragment of woodchuck FPA, leucine position 4]
% infarction in ipsilateral hemisphere, group mean [1]: 21.2%
Percent reduction in Infarct volume ([2]; listed as C-terminal (L) FPAw): 67%
Percent reduction in Infarct volume ([2]; listed as C-terminus (L) of FPAw): 67%
infarct volume, Maximum ([2]; 10 mg/kg, group statistics): 39.42 mm^3
infarct volume, Mean ([2]; 10 mg/kg, group statistics): 21.81 mm^3
infarct volume, Median ([2]; 10 mg/kg, group statistics): 22.58 mm^3
infarct volume, Minimum ([2]; 10 mg/kg, group statistics): 2.670 mm^3

Arg-Pro-Pro-Giy-Phe-SeF-Pro-Phe (RPPGFSPF) [Des-Arg^9] Bradykinin]
infarct area vs saline treated animals, statistical significance [3]: significant
anti-infarction effect ([1]; 0.005 mg/kg): worked
% infarction in ipsilateral hemisphere, group mean ([1]; listed as daBK): 17%

VP060 (RPPGFSP)
ischemia injury %, Mean [3]: 18.1%
total damage area, Mean [3]: 13.4
% Ischemic Injury [3]: 18.1%
total damage area, Total [3]: 67.1

N=C(N)NCCC[C@H](NC(=O)[C@H](Cc1cccs1)NC(=O)[C@@H](Cc1ccccc1)NC(=O)[C@H](CO)NC(=O)[C@H](Cc1cccs1)NC(=O)CNC(=O)[C@@H]1C[C@@H](O)CN1C(=O)[C@@H]1CCCN1C(=O)[C@H](CCCNC(=N)N)NC(=O)[C@@H](CCCNC(=N)N)NC(=O)CC12CC3CC(CC(C3)C1)C2)C(=O)O [VP046] ({Acetyl(1-adamantyl)}-[dR]RP[Hyp]G[2Thi]S[dF][2Thi]R-OH)
animal died [3]: died

RPPGFSP [Bradykinin (1-7)]
infarct area vs saline treated animals, statistical significance [3]: significant

Lys-Arg-Pro-Pro-Gly-Phe-Ser-Pro-Leu (KRPPGFSPL) [Lys-(Des-Arg9, Leu8)-Bradykinin]
infarct area vs saline treated animals, statistical significance [3]: significant

ADSGE GDFLAEGGGVR (ADSGEGDFLAEGGGVR) [FPA-h, synthesized human Fibrinopeptide-A]
reduction in infarction size ([1]; 10 μg/kg): statistically significant reduction in infarction size
% Infarction Volume ([1]; IV dose 15.625 ug/a, % of ipsilateral hemisphere, one animal per row, listed as FPA): 21.9% and 28.9%
infarction size, each cell one mouse ([1]; dose of 10 μg/ml for all test materials): 20.76 mm^3 and 53.72 mm^3
% infarction in ipsilateral hemisphere, Combined Groups, mean ([1]; pooled groups (FPA-w I+L; daBK+BK; C-term I+L; FPA-h from previous table)): 19.4%
effective as an anti-infarction molecule ([1]; synthesized peptides in the mouse-MCAO model, Tables 10-12): effective
infarct volume, 25% Percentile ([2]; FPA 0.625 mg/kg): 26.61
infarct volume, 75% Percentile ([2]; FPA 0.625 mg/kg): 51.40
infarct volume, Maximum ([2]; FPA 0.625 mg/kg): 65.19
infarct volume, Mean ([2]; FPA 0.625 mg/kg): 39.91
infarct volume, Median ([2]; FPA 0.625 mg/kg): 41.92
infarct volume, Minimum ([2]; FPA 0.625 mg/kg): 14.23
infarct volume, 25% Percentile ([2]; FPA 2.5 mg/kg): 16.08
infarct volume, 75% Percentile ([2]; FPA 2.5 mg/kg): 50.02
infarct volume, Maximum ([2]; FPA 2.5 mg/kg): 58.31
infarct volume, Mean ([2]; FPA 2.5 mg/kg): 28.26
infarct volume, Median ([2]; FPA 2.5 mg/kg): 25.56
infarct volume, Minimum ([2]; FPA 2.5 mg/kg): 5.180
infarct volume, 25% Percentile ([2]; FPA 10 mg/kg): 8.580
infarct volume, 75% Percentile ([2]; FPA 10 mg/kg): 59.32
infarct volume, Maximum ([2]; FPA 10 mg/kg): 91.58
infarct volume, Mean ([2]; FPA 10 mg/kg): 35.27
infarct volume, Median ([2]; FPA 10 mg/kg): 24.80
infarct volume, Minimum ([2]; FPA 10 mg/kg): 5.220

N=C(N)NCCC[C@H](NC(=O)[C@H](Cc1cccs1)NC(=O)[C@@H](Cc1ccccc1)NC(=O)[C@H](CO)NC(=O)[C@H](Cc1cccs1)NC(=O)CNC(=O)[C@@H]1CCCN1C(=O)[C@@H]1CCCN1C(=O)[C@@H](N)CCCNC(=N)N)C(=O)O [VP045] (H-RPPG[2Thi]S[dF][2Thi]R-OH)
animal died [3]: died

ADTDK GEFLAEGGGVR (ADTDKGEFLAEGGGVR) [FPA(L)-w, synthesized woodchuck Fibrinopeptide A with L in the 9th position]
% infarction in ipsilateral hemisphere, group mean [1]: 48.2%

VP044 (RPPGFSPF)
% Ischemic Injury [3]: 13.2%

VP044/010 (RPPGFSPF)
ischemia injury %, Mean [3]: 13.2%
total damage area, Mean [3]: 8.7
total damage area, Total [3]: 43.5

VP064 (XRPXGXSXXR; D-residues; non-natural residues)
% Ischemic Injury [3]: 34.2%

— US7811992B2, “Anti-infarction molecules” (Stasys Technologies, Inc., priority 2002, dated 2010)
